This note sets out measurements from a collection of fitness landscapes (doi:10.1126/science.1257360).

This is one part of the list.

B1: PhoQ; a variant is named by its letters at X, in order, P23837 (parent)
chain: MKKLLRLFFPLSLRVRFLLATAAVVLVLSLAYGMVALIGYSVSFDKTTFRLLRGESNLFYTLAKWENNKLHVELPENIDKQSPTMTLIYDENGQLLWAQRDVPWLMKMIQPDWLKSNGFHEIEADVNDTSLLLSGDHSIQQQLQEVREDDDDAEMTHSVAVNVYPATSRMPKLTIVVVDTIPVELKSSYMVWSWFIYVLSANLLLVIPLLWVAAWWSLRPIEALAKEVRELEEHNRELLNPATTRELTSLVRNLNRLLKSERERYDKYRTTLTDLTHSLKTPLXXLQXXLRSLRSEKMSVSDAEPVMLEQISRISQQIGYYLHRASMRGGTLLSRELHPVAPLLDNLTSALNKVYQRKGVNISLDISPEISFVGEQNDFVEVMGNVLDNACKYCLEFVEISARQTDEHLYIVVEDDGPGIPLSKREVIFDRGQRVDTLRPGQGVGLAVAREITEQYEGKIVAGESMLGGARMEVIFGRQHSAPKDE

Variants of B1 are the subject of the test. As to the kind of experiment: enrichment ratio after two sorts for PhoP signalling (ratio (wild type AVST 3.29)); higher = more functional. Particulars: with PhoP (E. coli).
Turning to FFNK, the enrichment ratio was not above 0.25.

On to AATF, for which the enrichment ratio worked out at 4.74.

As for ERTP, the enrichment ratio is not above 0.25.

In the case of SRKY, the enrichment ratio was not above 0.25.

With HEMF, the enrichment ratio is not above 0.25.

With PYGR, the enrichment ratio is not above 0.25.

TNVV: the enrichment ratio was not above 0.25.

Regarding IPCP, the enrichment ratio was not above 0.25.

On to GDHY, for which the enrichment ratio was not above 0.25.

As to ICIR, the enrichment ratio was not above 0.25.

LPIH: the enrichment ratio was not above 0.25.

As for RITV, the enrichment ratio is not above 0.25.

On to FEEM, for which the enrichment ratio is not above 0.25.

Turning to SMNI, the enrichment ratio was not above 0.25.

NAVK: the enrichment ratio was not above 0.25.

HGAM: the enrichment ratio is not above 0.25.

Turning to MNCQ, the enrichment ratio is not above 0.25.

KWGL: the enrichment ratio is not above 0.25.

Take NGWY: the enrichment ratio was not above 0.25.

WVYY: the enrichment ratio is not above 0.25.

LANE: the enrichment ratio was not above 0.25.

For YPGS, the enrichment ratio is not above 0.25.

Regarding QKEE, the enrichment ratio was not above 0.25.

Turning to AENL, the enrichment ratio was not above 0.25.

On to QSFQ, for which the enrichment ratio amounted to 7.51.

Consider QIYF, for which the enrichment ratio worked out at 2.65.

For the variant AIAI, the enrichment ratio is 12.7.

With EDCM, the enrichment ratio is not above 0.25.

With YEHM, the enrichment ratio was not above 0.25.

In the case of FHMG, the enrichment ratio is not above 0.25.

As to YHWN, the enrichment ratio was not above 0.25.

Turning to AMCQ, the enrichment ratio was 6.16.

WKPL: the enrichment ratio is not above 0.25.

As to PLHK, the enrichment ratio was not above 0.25.

SQQT: the enrichment ratio was not above 0.25.

With PNCA, the enrichment ratio is not above 0.25.

With FKIS, the enrichment ratio is not above 0.25.

Consider FWTW, for which the enrichment ratio is not above 0.25.

Turning to SKPE, the enrichment ratio is not above 0.25.

As to KELY, the enrichment ratio is not above 0.25.

For the variant FFWH, the enrichment ratio came to 0.871.

Regarding GHEH, the enrichment ratio was not above 0.25.

For the variant NYKA, the enrichment ratio is not above 0.25.

Take QRVH: the enrichment ratio was not above 0.25.

In the case of NCDN, the enrichment ratio was not above 0.25.

Turning to SKEW, the enrichment ratio is not above 0.25.

For the variant NRVI, the enrichment ratio was not above 0.25.

KLAL: the enrichment ratio was not above 0.25.

Take KSAV: the enrichment ratio is not above 0.25.

On to GPEP, for which the enrichment ratio is not above 0.25.

For the variant DPCN, the enrichment ratio is not above 0.25.

Regarding TGCN, the enrichment ratio worked out at 42.2.

Regarding FFQW, the enrichment ratio was not above 0.25.

For the variant KRRL, the enrichment ratio is not above 0.25.

For the variant LKWG, the enrichment ratio is not above 0.25.

On to WMVD, for which the enrichment ratio is not above 0.25.

In the case of FSNP, the enrichment ratio is not above 0.25.

Regarding YAGC, the enrichment ratio is not above 0.25.

Consider SISI, for which the enrichment ratio is 19.1.

For DHDT, the enrichment ratio was not above 0.25.

For the variant DNMQ, the enrichment ratio was not above 0.25.

With WPVY, the enrichment ratio is not above 0.25.

With LWQL, the enrichment ratio is not above 0.25.

On to WFYT, for which the enrichment ratio was not above 0.25.

Regarding FVPV, the enrichment ratio is not above 0.25.

As to PESV, the enrichment ratio is not above 0.25.

RFCV: the enrichment ratio was not above 0.25.

In the case of QHTP, the enrichment ratio was not above 0.25.

Consider WCKQ, for which the enrichment ratio was not above 0.25.

Regarding YRGG, the enrichment ratio was not above 0.25.

For SDWM, the enrichment ratio was not above 0.25.

As to DPFF, the enrichment ratio was not above 0.25.

Take ISFY: the enrichment ratio was not above 0.25.

For NKNG, the enrichment ratio was not above 0.25.

On to HGVS, for which the enrichment ratio is not above 0.25.

With VMVQ, the enrichment ratio was not above 0.25.

Regarding GKRR, the enrichment ratio was not above 0.25.

As for EARK, the enrichment ratio is not above 0.25.

Turning to WGGH, the enrichment ratio is not above 0.25.

Regarding ICFK, the enrichment ratio was not above 0.25.

With TAGV, the enrichment ratio stood at 5.24.

Regarding AWAW, the enrichment ratio was not above 0.25.

For NNIT, the enrichment ratio is not above 0.25.

In the case of LYGD, the enrichment ratio was not above 0.25.

For the variant WDFA, the enrichment ratio is not above 0.25.

As to PKYL, the enrichment ratio was not above 0.25.

As to QQTS, the enrichment ratio is not above 0.25.

In the case of HVVL, the enrichment ratio was not above 0.25.

In the case of VWTW, the enrichment ratio is not above 0.25.

Turning to SAIV, the enrichment ratio was 3.88.

Consider GPWD, for which the enrichment ratio was not above 0.25.

For the variant LQIQ, the enrichment ratio is not above 0.25.

As to MIYI, the enrichment ratio worked out at 24.3.

Take LYYR: the enrichment ratio is not above 0.25.

Turning to QVIT, the enrichment ratio was not above 0.25.

Regarding RFYW, the enrichment ratio is not above 0.25.

Take DTEC: the enrichment ratio was not above 0.25.

Turning to YFLC, the enrichment ratio was not above 0.25.

For IDMY, the enrichment ratio worked out at 0.903.

For FTFI, the enrichment ratio was not above 0.25.

In the case of IRET, the enrichment ratio was not above 0.25.

As for DLFL, the enrichment ratio was not above 0.25.

As to WCWC, the enrichment ratio was not above 0.25.

Consider TGSG, for which the enrichment ratio was found to be 16.4.

For YRCM, the enrichment ratio is not above 0.25.

Consider FLMC, for which the enrichment ratio stood at 0.995.

In the case of DGQG, the enrichment ratio is not above 0.25.

As for SKYI, the enrichment ratio was not above 0.25.

Regarding DYGC, the enrichment ratio is not above 0.25.

In the case of HRQG, the enrichment ratio was not above 0.25.

As to WQCM, the enrichment ratio is not above 0.25.

Consider PCDH, for which the enrichment ratio is not above 0.25.

Consider EPRH, for which the enrichment ratio was not above 0.25.

For ARSP, the enrichment ratio is not above 0.25.

With RYNW, the enrichment ratio is not above 0.25.

For FNCT, the enrichment ratio was not above 0.25.

Consider CLVT, for which the enrichment ratio was not above 0.25.

Regarding NQVD, the enrichment ratio was not above 0.25.

For YPQA, the enrichment ratio is not above 0.25.

With DGVG, the enrichment ratio is not above 0.25.

With IPWT, the enrichment ratio was not above 0.25.

Regarding YILE, the enrichment ratio is not above 0.25.

PTQY: the enrichment ratio is not above 0.25.

For the variant WNLK, the enrichment ratio is not above 0.25.

For the variant GFIL, the enrichment ratio was not above 0.25.

Regarding TKFN, the enrichment ratio was not above 0.25.

With HYCY, the enrichment ratio is not above 0.25.

Turning to QGNG, the enrichment ratio was not above 0.25.

With FKWL, the enrichment ratio was not above 0.25.

For QQRT, the enrichment ratio is not above 0.25.

LFNN: the enrichment ratio was not above 0.25.

For TQIS, the enrichment ratio stood at 2.

Take MPKY: the enrichment ratio is not above 0.25.

With VEWS, the enrichment ratio stood at 2.49.

For the variant VVFC, the enrichment ratio was not above 0.25.

Turning to VDYL, the enrichment ratio was not above 0.25.

As to DNKH, the enrichment ratio is not above 0.25.

Consider SQMF, for which the enrichment ratio stood at 6.14.

For YSDW, the enrichment ratio was not above 0.25.

Take VEWP: the enrichment ratio was not above 0.25.

In the case of EPAM, the enrichment ratio was not above 0.25.

Regarding HKSG, the enrichment ratio was not above 0.25.

As for SMSY, the enrichment ratio is 11.4.

Turning to LLIN, the enrichment ratio was not above 0.25.

Consider MYYQ, for which the enrichment ratio is 2.46.

In the case of WVVP, the enrichment ratio stood at 0.285.

Consider REIL, for which the enrichment ratio is not above 0.25.

As for HHPQ, the enrichment ratio is not above 0.25.

For PFKP, the enrichment ratio is not above 0.25.

HYTQ: the enrichment ratio is not above 0.25.

Turning to VEVV, the enrichment ratio was 2.45.

Regarding AIFF, the enrichment ratio was not above 0.25.

Turning to IAIR, the enrichment ratio was not above 0.25.
